Assay results published in the supplement of paper PMC3334620.
In all, about 33,000 sequences were measured (“E-score (-0.5 to 0.5)”: median about -0.04, highest 2% from about 0.36 on). The list shows a part of the results.

biological target: T1, Hmlalpha2 (UniProt P0CY09); assay: PBM E-score (8-mer binding enrichment) (E-score (-0.5 to 0.5)); higher = stronger / more preferred TF binding; most listed sequences are background and not binding sites; conditions: protein concentration: 200 nM; construct: GST-full length
T1 sequence: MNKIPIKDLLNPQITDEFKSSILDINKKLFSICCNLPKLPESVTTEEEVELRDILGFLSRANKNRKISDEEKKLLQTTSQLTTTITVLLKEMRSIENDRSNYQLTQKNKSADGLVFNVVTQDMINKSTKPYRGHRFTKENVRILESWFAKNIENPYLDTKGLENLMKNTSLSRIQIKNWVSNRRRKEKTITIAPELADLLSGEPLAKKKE
Procedure, shortened: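 GST-tagged yeast TFs (full-length or DNA-binding domain) were made by PURExpress in vitro transcription/translation and applied at about 100-200 nM to universal all-10-mer Agilent arrays. The arrays were made double-stranded by primer extension, on fresh or once-stripped slides. Bound protein was detected with fluorescent anti-GST, and scans were normalised with masliner. Each ungapped eight-base word, pooled with its reverse complement, received an E-score (modified Wilcoxon-Mann-Whitney statistic) from the Universal PBM Analysis Suite.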

Sequence	PBM E-score
CACGCGGG	0.0813
ATTCGTAG	0.13
CTCCCCAC	-0.3
AGTAATGC	0.1
AACCGAGA	-0.102
GCTTCGCC	-0.364
CCTTATCG	-0.0406
AGGTACGC	-0.0302
ACGTATTC	0.335
AACGCTGG	-0.0906
AGCCGAAT	-0.091
CATATCAA	0.169
CGCTAGGC	-0.265
GGCCCCAA	-0.304
CAGGTATA	0.0147
AAGATAGA	0.0963
ACCAGCTG	-0.213
ACTTGCGG	-0.217
AAGTCAGG	-0.18
TACGTACA	0.364
TCGCAAGA	-0.1
TCCCCTAA	-0.236
CTTGACGC	0.0471
GTCGGAGA	-0.101
ACTGCTGC	-0.201

Sequence	PBM E-score
ATCCAGAG	0.0154
GAACCACC	-0.192
AGTCAGCG	-0.209
GTGCAAAA	0.151
AAATTCAG	-0.0293
TCCAGGAA	-0.0965
CCATAGGA	-0.26
CTGCGTAA	0.417
ACCAATAA	-0.00652
CACCCAAA	-0.148
CTTTTGCA	0.105
GACATCTA	0.0495
CACGTGTA	0.444
CCACATGG	-0.0738
AGCCATTC	-0.0841
AATAATAT	0.253
CTTGTCAA	0.292
AGGAGAAG	-0.164
AGTACGAC	0.107
CTAGGGAC	-0.277
CAGCCATA	-0.172
CACAGAAC	0.188
GTGTCTCA	-0.0554
CGAGGCCG	-0.268
AAGTCTGA	-0.158

Sequence	PBM E-score
ACGGGGAT	-0.233
GCAGTAGC	-0.144
CACCCTCG	-0.147
AACGAATA	0.00559
AGGCAATA	-0.0326
TTGGAAAA	0.0001
CTTGGGTC	-0.215
GAGGTCCA	-0.138
CAAACTGG	-0.285
ACGCGAGC	0.0805
TCGAGTAA	0.338
AGCTGTTG	0.117
AGGCGCCT	-0.0272
ATGAGAAG	-0.112
CCAGGTTC	-0.111
AATCCTAT	-0.0522
GGAGACAA	-0.0427
CCCAATCC	-0.281
CCATCAGC	-0.231
CTTTCCTC	-0.0674
GCGACCCA	-0.292
GGCAGGCC	-0.245
CCCCCCGC	-0.348
GCTGTGCA	0.0482
CAAAGGTG	-0.144

Sequence	PBM E-score
GGCCAGCA	-0.189
ATGCAGCG	-0.184
AAAACGAC	0.165
AGAATAGG	-0.108
AGAGGATA	-0.00713
ATGATCCG	-0.0129
AGTGGTAC	-0.0807
GTTCCGGA	0.0592
ACGTTCCG	-0.0636
CCTGCCAG	-0.0668
ATCTAATA	0.198
CAGCTATC	-0.129
CCCCATCA	-0.0432
ACTAGACA	0.148
CGTAGATC	0.201
AGCTTCGC	-0.101
TATTGTGA	0.111
CGTCCTAG	0.0384
AAAGACTA	0.025
GCGGGAGC	-0.34
AAGCCGGT	-0.0642
CAAGGGAG	-0.0374
ATCCCCAT	-0.084
CCGTACGC	-0.0838
ATGTATGC	0.358

Sequence	PBM E-score
CCAATTGG	-0.127
CCGTTTTA	0.194
GCTGCTTA	-0.0322
GACTAACC	0.0233
ACATAGTG	0.2
ACGAAACG	0.0527
GGTGGATA	-0.237
CACTCAAC	0.0747
TAGATAAA	0.0875
CGCTCGAA	-0.054
ACAAACCG	0.039
GACAAGTA	0.071
AGAGCTTC	-0.179
AAACCACA	0.142
AGGTCCTG	-0.272
ATCTGAAA	0.0558
AGACGTCC	-0.0269
CCCTGTAG	0.0278
CACCGGGG	-0.326
GATACTGC	0.016
ATTCACTG	0.0199
AGCGTGCA	0.11
CTAATGGC	-0.144
CGGTGGGA	-0.316
CCCACAAC	-0.152

Sequence	PBM E-score
ATAGGCCA	-0.138
AAAACTCT	0.0694
CACTCGCA	0.0187
AATCAGTC	0.0535
ACTATCAG	-0.0387
CAGACCGC	-0.149
CCAAAAAC	0.086
AGATCTCG	-0.182
CACATTCA	0.00638
ATGGTTTC	0.0792
CAATTGGA	-0.199
ACCGGGCG	-0.422
AGTACTGA	0.00967
ATGCTAGC	0.139
CTTATAGA	-0.154
GACAATCC	-0.202
TAAGTCAA	0.0906
AAGCAAGA	-0.0444
ACCATTGA	0.0496
TCGACCGA	-0.0492
GCCTACGA	-0.0741
ACCACGCC	-0.2
GTATCGTA	0.137
CAACACGA	0.419
CGAATAAG	-0.28

Sequence	PBM E-score
CAAGTCCA	-0.226
AACGCAAG	0.154
CGGCCCGA	-0.212
CAACCCCC	-0.119
CAACGGGA	-0.118
ACCGCTTG	-0.0491
AGATTTCC	-0.111
ACGTTCTA	0.135
AAGGCAAA	0.00184
CGACATCC	-0.0883
GCCGACTA	0.0147
CTGGTCTA	-0.217
AGTAGAAT	0.165
TCGCGAAA	-0.0803
TACGAGAA	0.0859
CCGCATCG	-0.263
GCTTTTAA	-0.0275
CTAAAATC	-0.0305
TGAAATAA	0.192
CGCGTGAC	0.182
AACAGGAG	0.00534
GTGGTACA	0.174
GCCTCCAA	-0.111
AGACGAGC	-0.124
GCCGGAGA	-0.187

Sequence	PBM E-score
CTGCGCTA	-0.238
CCATGACG	-0.105
GAATACCC	-0.19
CTTTATAC	0.127
CGCCAGAC	0.0655
ACAAGTAA	0.237
CAGACTCC	-0.269
ACTAATCT	-0.0687
CATCCGCC	-0.253
AGGCTGGA	-0.184
ACACGATC	0.426
ATGATTCA	-0.00775
CCGTCATC	-0.185
AAGTTCGT	-0.0782
GAGCTGCA	-0.253
AGATTAGA	0.0648
CGCGCCCC	-0.278
ATGACCTA	0.049
CTATGATC	-0.0399
ATAACTAG	-0.0217
GACGCACA	0.00701
ACCCTGAG	-0.0283
ACCGGCTC	-0.166
ACACCTCA	-0.0541
ACTCTCGG	-0.0903

Sequence	PBM E-score
TCCGAAAA	-0.213
GAATCGGC	-0.18
GATGGACA	-0.0833
CACCCATA	-0.297
CAAAGACC	0.017
GTTCAAAA	0.175
CCAGGTTA	0.0279
GTGAGAGA	0.0289
ACGTGACC	-0.0125
ACGCAGCA	0.2
GATAAGCA	0.168
AGGCACAC	-0.173
CATCTGAG	-0.137
AGGGGTGC	-0.147
CGATACTA	0.105
ATGATTGC	0.0313
AGCTTCGG	-0.265
TGATGGCA	-0.185
CACTATCG	-0.153
CCATTAAA	-0.0126
CGTTTATA	0.148
AGAAGATA	0.14
CTCCGCAA	-0.0446
CACTGGCC	-0.196
CCTCGAGG	-0.104

Sequence	PBM E-score
CTTCCGGC	-0.0919
GCGGACAA	-0.00678
AGTATGCA	-0.0681
AAGAGTTG	-0.0202
CACTCGAA	0.0674
AGAGGGAT	-0.24
AGTAGTGA	-0.0576
CTCTACCA	-0.129
GGCTATCA	-0.0448
AGGGAGGG	-0.361
CTCGCCAG	-0.231
GTCCGGAC	-0.00671
CACCCGGC	-0.221
ACCAATCG	-0.00689
ACCTCAGG	-0.273
ACTCGCTG	-0.0125
GTTCCAAC	0.0866
AGAATGAC	-0.0198
CAGAGGCG	-0.0889
CAGTCTTC	-0.119
AAGTGAAT	0.0965
TAGTTACA	0.32
AGCTCGAG	-0.00073
AACTAGAC	0.109
CGTATACG	0.194

Sequence	PBM E-score
ATCAGGCC	-0.252
GAATTTCC	-0.0192
GTCATATA	0.228
GAGCGCAC	-0.329
AATCAGAT	0.0318
AAGTCGGA	-0.0616
GAAGGAAC	-0.134
TGCCGCCA	-0.142
CTCTCGAA	-0.0478
GTGAACTA	0.103
CGGAAGAG	-0.303
GGATATGA	-0.0552
AAAAATAC	0.027
ACAAACTC	0.161
ACCTACGG	-0.294
GAAAGTGC	-0.26
GAGCGACA	0.16
CTTTAAGA	-0.0198
GCTGAGCA	0.00749
GCCCGCCC	-0.326
GTTAACCA	0.285
CACAGTAA	0.194
GTGCAAGA	0.0959
ACTCACAT	0.0984
ATTATTCC	0.027

Sequence	PBM E-score
ACCGTTCA	-0.0934
ATGGGTGG	-0.201
ACGCAGAC	0.135
ATGTGACG	0.0865
CGAAGGTA	0.0263
GCACAGAC	0.102
GTAGCTGA	-0.0322
ACATTTGG	-0.0401
ATAAAGGA	-0.121
AAAAGAAC	0.203
CTCGATAA	0.055
CCCCGTCG	-0.269
AGACACAT	0.128
CGGTATGC	-0.169
CAGTATGA	0.0334
CACCACGA	0.0167
AGACACAG	0.114
ACGGCATG	0.0837
AAAATAAT	0.222
AGTCCGGA	0.0377
AGTAGCGA	-0.0382
GACCTGTA	-0.0109
CCAATAAA	0.0648
CTGGTTGA	-0.0845
GGAAGCTA	-0.236

Sequence	PBM E-score
CCAACCGC	-0.16
AAATCCCA	-0.0743
GGTGGCTA	-0.22
TCCGCCCA	-0.298
TAGGTATA	0.0844
AAATATGC	-0.0417
CCGTATTA	0.1
GAATGGAC	0.0224
TTCTACAA	0.314
GTTGCAGA	-0.0831
TCCCTTAA	0.0622
AAGATTAT	-0.211
TAATACAA	0.375
CCGGGTCC	-0.344
AATTTAGA	0.0535
GATTATTA	0.0539
CGCCCACG	-0.172
CCGCTGTA	0.0278
ACGACTCA	-0.146
CAATCGCA	0.0503
TTAATTAA	0.189
ATGGGCCG	-0.24
GTCACTTA	0.0407
GACGCATC	-0.0682
CATAGGCA	-0.0253

Sequence	PBM E-score
CGCCTAGA	-0.233
GGTCCTAA	0.00625
TCCCCGAA	-0.307
GGGAAGTA	0.0183
ATGGTGTC	-0.149
ACGATTCC	-0.04
CAATGGGA	-0.141
GTTATTGA	0.204
ATGGTATC	-0.171
ATTCGTCA	0.0398
ACCCTGAC	-0.269
GGATCTGA	-0.247
AGTGTGCG	-0.0715
CCTTAGGC	-0.273
AGTATCTA	0.155
CAATTGCG	-0.0486
GTTCACTA	0.0772
CCCGTCGG	-0.175
AATGTTCC	0.0727
